# Laboratory results from the supplement of paper PMC11417369.
# ± gives the standard deviation of the averaged measurements. The list shows a part of the results.
# System: PfAP2-LT AP2 domain (GST-tagged)
# Experiment: gcPBM binding intensity (ln(normalized median fluorescence intensity)); higher = stronger DNA binding
# Procedure, shortened: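 GST-fused DNA-binding domains of P. falciparum, expressed in E. coli, were applied at about 25 μg on average for 1 h to an Agilent 4 × 180k array of primer-extended double-stranded 36-bp intergenic genomic probes and negative controls. Binding intensity is the highest Masliner-normalised natural-log median intensity across replicate spots of either probe orientation, measured with Alexa488 anti-GST antibody and a 488 nm scan.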
row,Sequence,gcPBM binding intensity (ln)
1,TTAAAGCACCCATGCACACACACAAAGGAAAAGAAA [CACACA_site233],9.52 ± 0.3
2,TTATATGTATGGAGGTTTTTGTATATAGATATATAG [CACACA_negctrl_site177],8.65 ± 0.38
3,CATCTTATATAATCATGTACATATAGAGACTTCTTT [XGTACX_site7685],8.62 ± 0.4
4,GGGGGAATTTACATGGGTACACATGTATTAAAAAAT [XGTACX_site4130],9.03 ± 0.11
5,TTTTTCTTACATGAGTGTACACACTTTTTTTCAGAA [XGTACX_site138],8.78 ± 0.48
6,ACTATTAAAATGAATACACACAAATATAAAAATATA [CACACA_site4145],8.96 ± 0.5
7,GGTAGGGATTATACCACACACACATACACATAAATA [CACACA_site3179],9.62 ± 0.45
8,ACGCTACATAAATACGTGCACATCTTTTTGTGTATA [GTGCAC_site9675],9.07 ± 0.36
9,ATGTCATATAATAGTACACACATGAAAATATAAATA [CACACA_site3215],9.18 ± 0.46
10,ATAAAAAAAGGACACACACACATATATTTATTTATA [CACACA_site7438],9.71 ± 0.19
11,AAAAAAAAAAAAAATAGTACAATACCCAAATATAAC [XGTACX_site6684],9 ± 0.47
12,TTATTATAAATGTTTTGTACGTACATCCGAAAATAA [XGTACX_site2175],8.49 ± 0.42
13,TATAATCATATTAAGGGTACATATGTGTAAATATTT [XGTACX_site6018],8.77 ± 0.33
14,ATAATAATAATATAACCAAGGAAATATAATATTTGT [XGTACX_negctrl_site485],8.88 ± 0.36
15,CTTTAAAACCGGTACTGTACACATAGTATTATTATC [XGTACX_site2602],8.92 ± 0.37
16,CGATACTTTAGGTGTACACAAATATACATGAATGAG [CACACA_site5189],8.97 ± 0.49
17,AAAAAAAAGGAAATAACACACATGTATTTATTTATA [CACACA_site4966],8.79 ± 0.49
18,AAATTTGCTTTTATTTTACACACTTGCTCCTGTTGT [CACACA_site8276],9.53 ± 0.61
19,ATAATATTTTAATGCACACACACAAAAAAAAAAAAA [CACACA_site2891],9.13 ± 0.32
20,AAACAATCTAAAAGTAGTACAATAAAAATATATATA [XGTACX_site5607],8.81 ± 0.57
21,GAACCATAAGGAACGACACACAAAGATAAATAAATA [CACACA_site3472],9.1 ± 0.69
22,AAAAAAAAATTATTCACACATATATATATATATATA [CACACA_site5579],9.54 ± 0.18

row,Sequence,gcPBM binding intensity (ln)
1,AAAAATAAAAAAAGCACACACATATATATATATATA [CACACA_site1885],9.9 ± 0.33
2,TGATATTTACAAATATTAAGATCTTATATTTTTTTT [CACACA_negctrl_site617],8.46 ± 0.53
3,GTGTGAAACATAAACACACACAAAAAGAAAAAATAG [CACACA_site1227],9.52 ± 0.47
4,AATATAAATATTAAAACACACATAAAAAGATTATTA [CACACA_site1764],8.7 ± 0.53
5,TATATATATATATTACGTACATAGAACTTTATAAAA [XGTACX_site4485],8.64 ± 0.35
6,AATATTTTATTTTGGGTGCAAAAGAATATTATTTCA,8.31 ± 0.45
7,AGCACATATATATTATGTACATATAACTTCCCAGTG [XGTACX_site7095],8.97 ± 0.35
8,TATTACATAATACAAAGTACATATATTTTTTTATTT [XGTACX_site7061],8.52 ± 0.41
9,GTATATATATATATATGTACTAATTAGTAGTTTACG [XGTACX_site6274],9.01 ± 0.32
10,AATATTATAAATGATACACACTTAAAATACACGCAC [CACACA_site7305],9.2 ± 0.26
11,ATATTTATACATAAATGTACTTTTATATATTTAATA [XGTACX_site3020],8.57 ± 0.45
12,TAACAATTAATAAAAGGTACACTTGAATATGCACCA [XGTACX_site2717],8.54 ± 0.45
13,AATATATATATATATACACACACACCGATATATATA [CACACA_site8158],9.87 ± 0.2
14,TTAATATTTAGACATGCATGCTAATTACTATATATA [TGCATGCA_site27],8.99 ± 0.56
15,AATTTTAAGAGCTATACATGCACTTCATAAAAAGTG [TGCATGCA_site180],8.42 ± 0.38
16,ATAATAAAAAAAAATGCACACATATATATATATATA [CACACA_site8766],9.7 ± 0.11
17,GTAGAGCATAATAAAACACACACATACATACATATA [CACACA_site8217],9.64 ± 0.35
18,ATGGACATCTATTGTTGTACACATTTTCCCATAACA [XGTACX_site5429],8.86 ± 0.42
19,TTTCAAAAATGAGTTACACACACACGGATATAAATA [CACACA_site7116],9.35 ± 0.33
20,GAATATAAAATATATATATATATATATATATATATA [GTGCAC_negctrl_site425],9.6 ± 0.085
21,TTATAAATATAAAAATGTACAGAAAAAAAAAATAAA [XGTACX_site863],8.68 ± 0.54
22,AAAAGATTTATACATACACACATATTATATTCACAT [CACACA_site3713],9.16 ± 0.45
